# Test results: PubChem BioAssay AID1508642 (National Center for Advancing Translational Sciences (NCATS), 2021)
# The whole screen tested about 43,000 compounds, of which about 200 (0.47%) were called active. Roughly 12% stayed inconclusive and do not appear here. Calls follow the shape of the dose curve; as a rule, active = well fitted cell-killing curve with a large enough effect; inconclusive = small, poorly fitted or top-dose-only effect, or effect the other way; inactive = flat fitted curve, though single readings scatter. The list shows a part of the results.
# Assay: Cell viability qHTS assay in S16 Pmp22-F2sN cells; also: nearly all actives have a fitted effect of over 65% in size
# Conditions: S16 Pmp22-F2sN Schwann cells viability, CellTiter-Glo, 24 h; series mostly up to 57.5 µM; activity change, negative = cytotoxicity: at the top concentration
# Outline: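 Viability was measured by CellTiter-Glo luminescence (15 min, room temperature). This followed 24 h at 37 °C of compound exposure (23 nL pin transfer) in S16 Pmp22-F2sN Schwann cells, 500-1,000 per well.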
# % is scaled to controls: 0 for no effect and ±100 for the full control effect.
row,SMILES,"activity change, negative = cytotoxicity"
1,CCOC(=O)c1ccccc1NC(=O)CSc1ncc2c(n1)-c1ccccc1N(CC)S2(=O)=O,inactive: 7.57%
2,CCOc1ccc(S(=O)(=O)N(CC(=O)NCCSCc2ccccc2)c2ccccc2)cc1,inactive: 6.02%
3,CCOc1ccccc1NC(=O)N1CCN(Cc2cc(=O)n3nc(-c4ccc(C)cc4)sc3n2)CC1,inactive: -1.14%
4,COc1cc2nc(SCc3ccc(F)cc3)n3nc(CCn4c(C)nc5ccccc54)nc3c2cc1OC,inactive: -6.47%
5,O=C(c1ccc(CS(=O)c2ccccc2Cl)o1)N1CCN(c2ccccc2F)CC1 (stereo unspecified),inactive: -11%
6,Cc1ccc(CN2CCC(CNC(=O)Nc3c(C)cccc3C)C2)cc1 (stereo unspecified),inactive: 11%
7,COc1ccccc1-c1c(C)nn2c(C(F)(F)F)cc(-c3ccccc3)nc12,inactive: 18.5%
8,CSc1cccc(NC(=O)c2ccc3c(c2)c(C)c(C)n3Cc2ccc(F)cc2)c1,inactive: -16.4%
9,COc1ccc(CCCc2nnc(SCC(=O)Nc3ccc(C)c(C)c3)o2)cc1,inactive: 3.26%
10,CCc1ccc(S(=O)(=O)c2cn(C)c3cc(N4CCN(CC)CC4)c(F)cc3c2=O)cc1,inactive: 4.4%
11,Cc1cc(C)c2c(CC(=O)Nc3nnc(CC(C)C)s3)coc2c1,inactive: -3.77%
12,CC(C)NS(=O)(=O)c1ccc(OCC(=O)N2CCN(c3ccccc3F)CC2)cc1,inactive: 8.43%
13,CC(C)(C)c1ccc(OCC(=O)Nc2c(C(=O)c3ccc(F)cc3)oc3ccccc23)cc1,inactive: 16.2%
14,O=C(CCC1N=C2c3ccccc3N=C(SCc3cccc(Cl)c3)N2C1=O)NCc1cccs1 (stereo unspecified),inactive: 7.36%
15,COc1cccc(C(=O)N(Cc2cccc(Cl)c2)Cc2ccco2)c1,inactive: 11.4%
16,COC(=O)c1c(NC(=O)CCCOc2ccccc2)sc2c1CCC(C)C2 (stereo unspecified),inactive: -0.0607%
17,Cc1ccc(Cl)cc1NC(=O)C1CCCN(S(=O)(=O)c2c(C)noc2/C=C/N(C)C)C1 (stereo unspecified),inactive: -16%
18,Cc1cc(Nc2cccc(Cl)c2)nc2ccc(NC(=O)c3ccc(F)cc3Cl)cc12,inactive: -7.02%
19,O=C(Nc1ccccc1C(=O)OCc1cc(=O)n2ccsc2n1)c1cccc(F)c1,inactive: -10.3%
20,Cc1ccc2nc(/C(C#N)=C/c3ccc(-c4ccc(F)cc4F)o3)[nH]c2c1,inactive: -2.07%
21,Fc1ccc(C2=NC(c3cccc(C(F)(F)F)c3)=Nc3ccccc3N2)cc1,inactive: -25.1%

row,SMILES,"activity change, negative = cytotoxicity"
1,CCC(=O)N1CCc2cc(S(=O)(=O)CCC(=O)N(C)c3ccc(OC)cc3)ccc21,inactive: 12.8%
2,CCOc1ccc(NC(=O)NCCCN2CCN(c3ccc(OC)cc3)CC2)cc1,inactive: -11%
3,O=C(c1ccc(CSc2nc3ccncc3n2Cc2ccccc2F)cc1)N1CCCCC1,inactive: -9.7%
4,CC(C)c1ccc(NC(=O)CNC(=O)Cn2ccc3ccccc3c2=O)cc1,inactive: 3.62%
5,O=C(NCc1ccc(F)cc1)c1cccc(N2CCCS2(=O)=O)c1,inactive: 23.4%
6,O=C(NCCc1ccccc1)c1cc(-c2ccccc2)nc2n[nH]c(-c3ccccc3)c12,inactive: -25.9%
7,Cc1ccc(-c2cc(C(=O)NCCc3ccccc3)c3ccccc3n2)cc1C,inactive: -29.6%
8,CN(C)c1ccc(/C=C(\C#N)c2nc3ccccc3c(=O)[nH]2)cc1,inactive: 7.14%
9,COc1ccc(NC(=O)c2oc3ccccc3c2NC(=O)Cc2coc3cc(C)ccc23)cc1,inactive: 2.49%
10,COc1ccc(C)cc1NC(=O)CCNC(=O)Cn1ccc2ccccc2c1=O,inactive: 6.8%
11,COCCCn1c(=N)c(C(=O)NCc2cccnc2)cc2c(=O)n3cccc(C)c3nc21,inactive: -1.21%
12,CCOC(=O)c1c(C)[nH]c(CCC(=O)NCc2cccc(C)c2)c1C,inactive: 7.24%
13,Cc1ccc(CNC(=O)CN2C(=O)CSc3c2c(C)nn3-c2ccccc2)cc1,inactive: 6.46%
14,Cn1c(-c2ccccc2)cnc1NCc1ccccc1O,inactive: 4.41%
15,O=C(NCc1ccccc1Br)c1ccc2c(c1)nc1n2CCOC1,inactive: 12.8%
16,O=C(CCC1N=C2c3ccccc3N=C(SCc3ccccc3F)N2C1=O)NCc1ccccc1 (stereo unspecified),inactive: -29.2%
17,CCCNC(=O)COCc1cc(-c2ccc(F)cc2)on1,inactive: -0.902%
18,COc1ccc(C2=C(C)C(=NCCCN3CCN(c4cc(Cl)ccc4C)CC3)NS2(=O)=O)cc1,inactive: -15.5%
19,Cc1ccc(NC(=O)Cn2cc(S(=O)(=O)Cc3cccc(Cl)c3)c3ccccc32)cc1C,inactive: 5.22%
20,COc1ccc(-n2ncc(C(=O)Nc3ccc4c(c3)OCO4)c2C2CCN(C(=O)OC(C)(C)C)CC2)cc1,inactive: -29.1%
21,COc1ccc2oc(-c3ccc(C)c(NC(=O)c4ccc5c(c4)OCCO5)c3)nc2c1,inactive: 5.84%

row,SMILES,"activity change, negative = cytotoxicity"
1,CCN1CCN(CCCNC(=O)c2cnn(-c3ccccc3Cl)c2C2CCN(C(=O)OC(C)(C)C)CC2)CC1,inactive: 0.102%
2,Cc1nn(C)c2c1c(-c1ccccc1)cc(=O)n2Cc1ccccc1C#N,inactive: -12.2%
3,Cc1cc(OCC(=O)Nc2c(C(=O)c3ccccc3)oc3ccccc23)cc(C)c1Cl,inactive: 8.47%
4,O=C(c1ccccc1)c1cn(Cc2ccc(F)cc2)c2ccccc2c1=O,inactive: -19.2%
5,CCCCc1nn2c(=O)cc(COC(=O)c3cccc(Cl)c3)nc2s1,inactive: -27.1%
6,Cc1cccc(C)c1NC(=O)Cn1nnc(C(=O)Nc2c(C)cccc2C)c1N,inactive: -3.05%
7,Cc1cc(F)ccc1NC(=O)C1CCN(C(=O)c2cnn(-c3ccccc3)c2-n2cccc2)CC1,inactive: -3.08%
8,CC(=O)n1nc(-c2cccnc2)nc1NCc1ccc(F)cc1,inactive: 1.14%
9,CCOc1ccc(NC(=O)c2c(NCc3ccc(C)o3)sc3c2CCCCC3)cc1,inactive: -14.6%
10,CCn1cc(C(=O)OCC(=O)Nc2cc(OC)cc(OC)c2)c(=O)c2ccc(C)nc21,inactive: 0.22%
11,O=C1c2oc3ccccc3c(=O)c2C(c2ccc(O)cc2)N1Cc1ccc2c(c1)OCO2 (stereo unspecified),inactive: 16.2%
12,O=C(c1ccc(Cl)cc1)N1CCC(c2nc3ccccc3o2)CC1,inactive: -0.689%
13,COc1ccccc1-c1noc(-c2ccc(N3CCN(C)CC3)c([N+](=O)[O-])c2)n1,inactive: -6.29%
14,Cc1ccc(-c2ccc(=O)n(CC(=O)NCCc3ccc(Cl)cc3)n2)cc1,inactive: -5.22%
15,Cc1ccc(CSC2=Nc3ccccc3C3=NC(CC(=O)NCc4cccs4)C(=O)N23)c(C)c1 (stereo unspecified),inactive: 5.35%
16,O=C(Nc1ccc2nc(SCCOc3ccccc3)sc2c1)c1ccccc1F,inactive: 17.4%
17,CCOC(=O)c1c(C)c(-c2ccccc2)n(CC(=O)Nc2ccc(OCC)cc2)c1C,inactive: 8.69%
18,COc1ccc(-c2cn3c(n2)sc2cc(C(=O)Nc4cccc(SC)c4)ccc23)cc1,inactive: 13.5%
19,COc1cccc2c1cc1c(=O)n(CC(=O)N3CCN(c4cccc(Cl)c4)CC3)nc(C)n12,inactive: 13.2%
